Test results as given in the supplement of paper PMC11741623.
Some of the results follow. Interaction screen of human proteins with wild-type SARS-CoV-2 proteins by split-DHFR complementation in yeast, 1 µg/mL methotrexate. Value = fitness of the pair (three or more lineages) minus that of the viral protein without a human partner, on a scale set by negative (0) and fused positive (1) controls, mean of up to three cultures; higher = more likely to interact. Active = false discovery rate below 0.05 (one-sided t-test) in at least one culture. Nearly all pairs are not hits, and differences among them are mostly noise (correlation between cultures about 0.3); most hits were seen in one culture only. Human sequences are the Swiss-Prot entries looked up by gene name; the clone may be another isoform. NSP2 values were corrected by the authors for a growth advantage. Listed are human proteins with a hit and a random twelfth of the others.

B1: ATAD3B, Q5T9A4 (protein)
chain: MSWLFGVNKGPKGEGAGPPPPLPPAQPGAEGGGDRGLGDRPAPKDKWSNFDPTGLERAAKAARELEHSRYAKEALNLAQMQEQTLQLEQQSKLKEYEAAVEQLKSEQIRAQAEERRKTLSEETRQHQARAQYQDKLARQRYEDQLKQQQLLNEENLRKQEESVQKQEAMRRATVEREMELRHKNEMLRVETEARARAKAERENADIIREQIRLKASEHRQTVLESIRTAGTLFGEGFRAFVTDRDKVTATVAGLTLLAVGVYSAKNATAVTGRFIEARLGKPSLVRETSRITVLEALRHPIQVSRRLLSRPQDVLEGVVLSPSLEARVRDIAIATRNTKKNRGLYRHILLYGPPGTGKTLFAKKLALHSGMDYAIMTGGDVAPMGREGVTAMHKLFDWANTSRRGLLLFMDEADAFLRKRATEEISKDLRATLNAFLYHMGQHSNKFMLVLASNLPEQFDCAINSRIDVMVHFDLPQQEERERLVRLHFDNCVLKPATEGKRRLKLAQFDYGRKCSEVARLTEGMSGREIAQLAVSWQATAYASKDGVLTEAMMDACVQDAVQQYRQKMRWLKAEGPGRGVEHPLSGVQGETLTSWSLATDPSYPCLAGPCTFRICSWMGTGLCPGPLSPRMSCGGGRPFCPPGHPLL
B2: C19orf75, Q8N7X8 (protein)
chain: MLPLLQLVPAKLLNSSCSLEKTLQCSCSFHGIPTPSVQWWMGGVPVGVDGMDGSLQVTSTMLGPWANSTISLTEEPEMGMRLLCEGKNQNGTHALSILLMSRKSSLAAQAFVKGLIQGAIYAGIVIALLFLCLLPLIVKHIRKKQAKKAAAIRAKKSSKVRASQELEMSLKPEEPGKPVVATFSESRILEKQDKRAS

What follows are binders tested against SARS-CoV-2 E (assay: yeast fitness gain over the viral ORF with no human partner (scaled fitness); higher = more likely to interact).
Description: (§1)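 Split mouse DHFR complementation in pooled diploid yeast: human ORFeome clones carry one fragment and viral ORFs the other; barcoded lineages compete in 1 µg/mL methotrexate and fitness is read by barcode sequencing in up to three cultures.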

Row | Binder | yeast fitness gain
1 | B1 | inactive: 0.0201
2 | B2 | inactive: 0.0241

The binders below were run against SARS-CoV-2 M in the same assay as above.
Description: as §1

Row | Binder | yeast fitness gain
3 | B1 | inactive: 0.00447
4 | B2 | inactive: -0.0314

What follows are binders tested against SARS-CoV-2 N in the same assay as above.
Description: as §1

Row | Binder | yeast fitness gain
5 | B1 | inactive: 0.111

The binders below were run against SARS-CoV-2 NSP1 in the same assay as above.
Description: as §1

Row | Binder | yeast fitness gain
6 | B1 | inactive: 0.028
7 | B2 | inactive: 0.106

What follows are binders tested against SARS-CoV-2 NSP10 in the same assay as above.
Description: as §1

Row | Binder | yeast fitness gain
8 | B1 | inactive: -0.0145
9 | B2 | inactive: 0.0303

What follows are binders tested against SARS-CoV-2 NSP12 in the same assay as above.
Description: as §1

Row | Binder | yeast fitness gain
10 | B1 | inactive: 0.0274
11 | B2 | inactive: 0.0204

What follows are binders tested against SARS-CoV-2 NSP13 in the same assay as above.
Description: as §1

Row | Binder | yeast fitness gain
12 | B1 | inactive: 0.0236
13 | B2 | inactive: -0.0259

The binders below were run against SARS-CoV-2 NSP14 in the same assay as above.
Description: as §1

Row | Binder | yeast fitness gain
14 | B1 | inactive: -0.0413

The binders below were run against SARS-CoV-2 NSP15 in the same assay as above.
Description: as §1

Row | Binder | yeast fitness gain
15 | B1 | inactive: 0.0193
16 | B2 | inactive: 0.074

What follows are binders tested against SARS-CoV-2 NSP16 in the same assay as above.
Description: as §1

Row | Binder | yeast fitness gain
17 | B1 | inactive: 0.00309
18 | B2 | inactive: -0.142

The binders below were run against SARS-CoV-2 NSP2 in the same assay as above.
Description: as §1

Row | Binder | yeast fitness gain
19 | B1 | inactive: -0.14
20 | B2 | inactive: -0.145

These binders were tested against SARS-CoV-2 NSP4 in the same assay as above.
Description: as §1

Row | Binder | yeast fitness gain
21 | B1 | inactive: 0.0358
22 | B2 | inactive: 0.0861

These binders were tested against SARS-CoV-2 NSP5 in the same assay as above.
Description: as §1

Row | Binder | yeast fitness gain
23 | B1 | inactive: 0.00764
24 | B2 | inactive: 0.0187

Each binder was assayed against SARS-CoV-2 NSP6 in the same assay as above.
Description: as §1

Row | Binder | yeast fitness gain
25 | B1 | inactive: 0.0143
26 | B2 | inactive: -0.0375

The binders below were run against SARS-CoV-2 NSP7 in the same assay as above.
Description: as §1

Row | Binder | yeast fitness gain
27 | B1 | inactive: 0.0556
28 | B2 | inactive: 0.0336

Each binder was assayed against SARS-CoV-2 NSP8 in the same assay as above.
Description: as §1

Row | Binder | yeast fitness gain
29 | B1 | inactive: 0.000838
30 | B2 | inactive: 0.00762

These binders were tested against SARS-CoV-2 NSP9 in the same assay as above.
Description: as §1

Row | Binder | yeast fitness gain
31 | B1 | inactive: 0.0669
32 | B2 | inactive: -0.491

The binders below were run against SARS-CoV-2 ORF10 in the same assay as above.
Description: as §1

Row | Binder | yeast fitness gain
33 | B1 | inactive: -0.0155
34 | B2 | inactive: -0.00578

These binders were tested against SARS-CoV-2 ORF3A in the same assay as above.
Description: as §1

Row | Binder | yeast fitness gain
35 | B1 | inactive: -0.0161

Each binder was assayed against SARS-CoV-2 ORF3B in the same assay as above.
Description: as §1

Row | Binder | yeast fitness gain
36 | B1 | inactive: 0.031
37 | B2 | inactive: 0.00338

The binders below were run against SARS-CoV-2 ORF6 in the same assay as above.
Description: as §1

Row | Binder | yeast fitness gain
38 | B1 | inactive: 0.00895
39 | B2 | inactive: 0.0565

These binders were tested against SARS-CoV-2 ORF7A in the same assay as above.
Description: as §1

Row | Binder | yeast fitness gain
40 | B1 | inactive: 0.0344
41 | B2 | inactive: 0.0825

These binders were tested against SARS-CoV-2 ORF7B in the same assay as above.
Description: as §1

Row | Binder | yeast fitness gain
42 | B1 | inactive: 0.0143
43 | B2 | inactive: 0.0729

What follows are binders tested against SARS-CoV-2 ORF8 in the same assay as above.
Description: as §1

Row | Binder | yeast fitness gain
44 | B1 | inactive: 0.037
45 | B2 | inactive: 0.00512

These binders were tested against SARS-CoV-2 ORF9B in the same assay as above.
Description: as §1

Row | Binder | yeast fitness gain
46 | B1 | inactive: -0.00571
47 | B2 | inactive: 0.0293

These binders were tested against SARS-CoV-2 ORF9Bwu (the 73-codon ORF) in the same assay as above.
Description: as §1

Row | Binder | yeast fitness gain
48 | B1 | inactive: 0.00528
49 | B2 | inactive: -0.108

Each binder was assayed against SARS-CoV-2 S in the same assay as above.
Description: as §1

Row | Binder | yeast fitness gain
50 | B1 | inactive: 0.00974
51 | B2 | inactive: -0.0227
